Test results: article PMC9911399, “Two distinct binding modes provide the RNA-binding protein RbFox with extraordinary sequence specificity”
Residue numbers refer to the chain shown, from its start. The list shows a part of the results.

T1: RBFOX1 RRM RbFoxmut (Fox-RRM*) (Homo sapiens, UniProt Q9NWB1 109-208, R118D;E147R;N151S;E152T)
T1 sequence: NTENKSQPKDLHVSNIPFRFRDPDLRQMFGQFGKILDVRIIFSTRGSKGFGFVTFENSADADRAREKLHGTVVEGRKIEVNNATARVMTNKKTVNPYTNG

B1: GGUCCAC (DNA:RNA)
RNA: GGGAGACCGGAAUUCAGAUUGUCCGGUCCACUUAAAUCCCGUCGUAGCCACCA
DNA 1: CAATCTGAATTCCGGTCTCCC
DNA 2: TGGTGGCTACGACGGGATT
B2: GAGUAUC (DNA:RNA)
RNA: B1 RNA with G26A, U27G, C28U, C29A, A30U
DNA 1: CAATCTGAATTCCGGTCTCCC
DNA 2: TGGTGGCTACGACGGGATT
B3: ACGUCCG (DNA:RNA)
RNA: B1 RNA with G25A, G26C, U27G, C28U, A30C, C31G
DNA 1: CAATCTGAATTCCGGTCTCCC
DNA 2: TGGTGGCTACGACGGGATT
B4: GUUGUCU (DNA:RNA)
RNA: B1 RNA with G26U, C28G, C29U, A30C, C31U
DNA 1: CAATCTGAATTCCGGTCTCCC
DNA 2: TGGTGGCTACGACGGGATT
B5: ACCUCGU (DNA:RNA)
RNA: B1 RNA with G25A, G26C, U27C, C28U, A30G, C31U
DNA 1: CAATCTGAATTCCGGTCTCCC
DNA 2: TGGTGGCTACGACGGGATT
B6: UCCACGA (DNA:RNA)
RNA: B1 RNA with G25U, G26C, U27C, C28A, A30G, C31A
DNA 1: CAATCTGAATTCCGGTCTCCC
DNA 2: TGGTGGCTACGACGGGATT
B7: CUCGCCU (DNA:RNA)
RNA: B1 RNA with G25C, G26U, U27C, C28G, A30C, C31U
DNA 1: CAATCTGAATTCCGGTCTCCC
DNA 2: TGGTGGCTACGACGGGATT
B8: UUCGAGA (DNA:RNA)
RNA: GGGAGACCGGAAUUCAGAUUGUCCUUCGAGAUUAAAUCCCGUCGUAGCCACCA
DNA 1: CAATCTGAATTCCGGTCTCCC
DNA 2: TGGTGGCTACGACGGGATT
B9: AUCGUAA (DNA:RNA)
RNA: B8 RNA with U25A, A29U, G30A
DNA 1: CAATCTGAATTCCGGTCTCCC
DNA 2: TGGTGGCTACGACGGGATT
B10: CAGCAAU (DNA:RNA)
RNA: B1 RNA with G25C, G26A, U27G, C29A, C31U
DNA 1: CAATCTGAATTCCGGTCTCCC
DNA 2: TGGTGGCTACGACGGGATT
B11: UUCGUUA (DNA:RNA)
RNA: B8 RNA with A29U, G30U
DNA 1: CAATCTGAATTCCGGTCTCCC
DNA 2: TGGTGGCTACGACGGGATT
B12: UUUCCCC (DNA:RNA)
RNA: B1 RNA with G25U, G26U, A30C
DNA 1: CAATCTGAATTCCGGTCTCCC
DNA 2: TGGTGGCTACGACGGGATT
B13: AUUCCAG (DNA:RNA)
RNA: B1 RNA with G25A, G26U, C31G
DNA 1: CAATCTGAATTCCGGTCTCCC
DNA 2: TGGTGGCTACGACGGGATT
B14: UUCCGAA (DNA:RNA)
RNA: B8 RNA with G28C, A29G, G30A
DNA 1: CAATCTGAATTCCGGTCTCCC
DNA 2: TGGTGGCTACGACGGGATT
B15: CCACGGC (DNA:RNA)
RNA: B1 RNA with G25C, G26C, U27A, C29G, A30G
DNA 1: CAATCTGAATTCCGGTCTCCC
DNA 2: TGGTGGCTACGACGGGATT
B16: UUAGCCC (DNA:RNA)
RNA: B8 RNA with C27A, A29C, G30C, A31C
DNA 1: CAATCTGAATTCCGGTCTCCC
DNA 2: TGGTGGCTACGACGGGATT
B17: AACCUUA (DNA:RNA)
RNA: B8 RNA with U25A, U26A, G28C, A29U, G30U
DNA 1: CAATCTGAATTCCGGTCTCCC
DNA 2: TGGTGGCTACGACGGGATT
B18: UUCGUGA (DNA:RNA)
RNA: B8 RNA with A29U
DNA 1: CAATCTGAATTCCGGTCTCCC
DNA 2: TGGTGGCTACGACGGGATT
B19: GCGCACC (DNA:RNA)
RNA: B1 RNA with G26C, U27G, C29A, A30C
DNA 1: CAATCTGAATTCCGGTCTCCC
DNA 2: TGGTGGCTACGACGGGATT
B20: AAUCAGG (DNA:RNA)
RNA: B1 RNA with G25A, G26A, C29A, A30G, C31G
DNA 1: CAATCTGAATTCCGGTCTCCC
DNA 2: TGGTGGCTACGACGGGATT
B21: CGACCCC (DNA:RNA)
RNA: B1 RNA with G25C, U27A, A30C
DNA 1: CAATCTGAATTCCGGTCTCCC
DNA 2: TGGTGGCTACGACGGGATT
B22: ACAAGGA (DNA:RNA)
RNA: B8 RNA with U25A, U26C, C27A, G28A, A29G
DNA 1: CAATCTGAATTCCGGTCTCCC
DNA 2: TGGTGGCTACGACGGGATT
B23: UGAAGCU (DNA:RNA)
RNA: B1 RNA with G25U, U27A, C28A, C29G, A30C, C31U
DNA 1: CAATCTGAATTCCGGTCTCCC
DNA 2: TGGTGGCTACGACGGGATT
B24: UAGACUG (DNA:RNA)
RNA: B1 RNA with G25U, G26A, U27G, C28A, A30U, C31G
DNA 1: CAATCTGAATTCCGGTCTCCC
DNA 2: TGGTGGCTACGACGGGATT
B25: CCGCUUC (DNA:RNA)
RNA: B1 RNA with G25C, G26C, U27G, C29U, A30U
DNA 1: CAATCTGAATTCCGGTCTCCC
DNA 2: TGGTGGCTACGACGGGATT
B26: CUCUAGG (DNA:RNA)
RNA: B8 RNA with U25C, G28U, A31G
DNA 1: CAATCTGAATTCCGGTCTCCC
DNA 2: TGGTGGCTACGACGGGATT
B27: ACCGCAA (DNA:RNA)
RNA: B8 RNA with U25A, U26C, A29C, G30A
DNA 1: CAATCTGAATTCCGGTCTCCC
DNA 2: TGGTGGCTACGACGGGATT
B28: UCCCGGU (DNA:RNA)
RNA: B8 RNA with U26C, G28C, A29G, A31U
DNA 1: CAATCTGAATTCCGGTCTCCC
DNA 2: TGGTGGCTACGACGGGATT
B29: UACCGGC (DNA:RNA)
RNA: B8 RNA with U26A, G28C, A29G, A31C
DNA 1: CAATCTGAATTCCGGTCTCCC
DNA 2: TGGTGGCTACGACGGGATT
B30: GCCCGGC (DNA:RNA)
RNA: B1 RNA with G26C, U27C, C29G, A30G
DNA 1: CAATCTGAATTCCGGTCTCCC
DNA 2: TGGTGGCTACGACGGGATT
B31: UCCUUCC (DNA:RNA)
RNA: B8 RNA with U26C, G28U, A29U, G30C, A31C
DNA 1: CAATCTGAATTCCGGTCTCCC
DNA 2: TGGTGGCTACGACGGGATT

target: T1, RBFOX1 RRM RbFoxmut (Fox-RRM*); experiment: EMSA; HiTS-Eq, 1 nM pool, 10 min; buffer printed only for the single-RNA assays: 10 mM Tris pH 7.5, 150 mM NaCl, 3.4 mM EDTA, 0.001% NP-40, 30 C; settings: tags: His6 N-terminal (pET28a); label: 5' 32P
Outline: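 Relative association constants, normalised to the cognate motif, were derived by comparing read counts of each RNA species with those of the control reaction. The RNA sequenced was the free fraction, separated by 8% native PAGE after a 10 min equilibration in 50 µL of 1 nM 5′-radiolabelled RNA (7 randomized nucleotides) with increasing concentrations of purified wild-type or mutant RbFox RRM.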

Binder | binding signal
B1 | 0.087 KA relative to UGCAUGU
B2 | 0.237 KA relative to UGCAUGU
B3 | 0.121 KA relative to UGCAUGU
B4 | 0.0966 KA relative to UGCAUGU
B5 | 0.106 KA relative to UGCAUGU
B6 | 0.0743 KA relative to UGCAUGU
B7 | 0.0799 KA relative to UGCAUGU
B8 | 0.0954 KA relative to UGCAUGU
B9 | 0.142 KA relative to UGCAUGU
B10 | 0.0463 KA relative to UGCAUGU
B11 | 0.129 KA relative to UGCAUGU
B12 | 0.0448 KA relative to UGCAUGU
B13 | 0.0883 KA relative to UGCAUGU
B14 | 0.105 KA relative to UGCAUGU
B15 | 0.0761 KA relative to UGCAUGU
B16 | 0.0877 KA relative to UGCAUGU

Binder | binding signal
B17 | 0.143 KA relative to UGCAUGU
B18 | 0.0766 KA relative to UGCAUGU
B19 | 0.128 KA relative to UGCAUGU
B20 | 0.0974 KA relative to UGCAUGU
B21 | 0.0694 KA relative to UGCAUGU
B22 | 0.0551 KA relative to UGCAUGU
B23 | 0.0586 KA relative to UGCAUGU
B24 | 0.14 KA relative to UGCAUGU
B25 | 0.106 KA relative to UGCAUGU
B26 | 0.106 KA relative to UGCAUGU
B27 | 0.0662 KA relative to UGCAUGU
B28 | 0.0883 KA relative to UGCAUGU
B29 | 0.0785 KA relative to UGCAUGU
B30 | 0.0972 KA relative to UGCAUGU
B31 | 0.0388 KA relative to UGCAUGU
